# Measurements published in PubChem BioAssay AID624417 (National Center for Advancing Translational Sciences (NCATS), 2012).
# About 6,400 (1.6%) of roughly 410,000 compounds were called active. Inconclusive results, whose numbers are uncertain, are shown with a selection of clear calls. Calls come from the whole dose curve; as a rule, active = well fitted inhibition curve with a large enough effect; inconclusive = small, poorly fitted or top-dose-only effect; inactive = no such curve, though single readings can be large or run the other way. No potency is given beside an inconclusive call; the fits are too rough.
# Molecular target: Glucagon-like peptide 1 receptor (Homo sapiens) (UniProt P43220)
# Sequence of UniProt P43220 (P43220 whole entry, looked up): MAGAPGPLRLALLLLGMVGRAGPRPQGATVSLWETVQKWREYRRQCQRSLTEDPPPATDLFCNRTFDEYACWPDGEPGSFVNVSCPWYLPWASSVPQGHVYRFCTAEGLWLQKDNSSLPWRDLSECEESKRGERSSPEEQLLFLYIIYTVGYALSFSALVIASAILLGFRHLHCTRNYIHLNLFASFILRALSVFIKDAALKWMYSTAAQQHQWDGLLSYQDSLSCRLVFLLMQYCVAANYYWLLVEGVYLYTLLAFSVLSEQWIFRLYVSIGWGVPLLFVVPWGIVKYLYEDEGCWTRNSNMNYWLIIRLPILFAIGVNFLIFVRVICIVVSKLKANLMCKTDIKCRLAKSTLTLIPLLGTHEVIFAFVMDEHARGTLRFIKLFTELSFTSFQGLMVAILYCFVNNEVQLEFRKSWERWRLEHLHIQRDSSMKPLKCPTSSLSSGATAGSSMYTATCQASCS
# Experiment: qHTS of GLP-1 Receptor Inverse Agonists (Inhibition Mode); note: nearly all actives have a fitted effect of over 55% in size
# Settings: HEK293 GLP-1R CRE-luciferase, luminescence, 24 h; Potency: GLP-1R form is constitutively active unless noted; series mostly up to 38.3 µM
# How it was run: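 qHTS in 1536-well format: reporter HEK293 cells expressing constitutive GLP-1R activity in DMEM + 10% Nu serum, 24 hr with compounds at 37 deg C, luminescence read after 12 min with detection reagent.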
# Potency is the fitted concentration of half-maximal effect; tags give direction and shape of the fitted curve.
row,Compound,Potency
1,COc1ccc(C(c2nnnn2-c2c(C)cccc2C)N2CCC3(CC2)C(=O)NCN3c2ccccc2)cc1 (stereo unspecified),"inconclusive [inhibitor, single point]"
2,COc1ccc(CC2C(=O)NC(C)C(=O)N(C)C3C(=O)N(C)C(Cc4ccc(O)c(c4)Oc4ccc(cc4)C3O)C(=O)NC(C)C(=O)NC(C)C(=O)N2C)cc1 (stereo unspecified),"inconclusive [inhibitor, full curve, poor fit]"
3,CCc1ccc(CNC(=O)c2ccc3c(c2)N=C(C)c2cc(C)ccc2S3)cc1,"inconclusive [inhibitor, partial curve, poor fit]"
4,Cc1ccc(N)c(C(=O)c2ccc(Br)cc2)c1,"inconclusive [inhibitor, single point]"
5,CC1(C)CN=C(Nc2ccccc2C(F)(F)F)S1,"inconclusive [inhibitor, single point]"
6,O=C(Nc1ccc(Cl)cc1)OC1CN2CCC1CC2 (stereo unspecified),"inconclusive [inhibitor, single point]"
7,CCC(=O)OC1(Cc2ccc(CC)cc2)CC(C)N(C)CC1C (stereo unspecified),"inconclusive [inhibitor, partial curve, poor fit]"
8,Cc1ccc2c(Cl)cc(Cl)c(OCC(=O)N(C(C)C)C(C)C)c2n1,"inconclusive [inhibitor, full curve, poor fit]"
9,CCOC(=O)C(NS(=O)(=O)c1ccc(C)cc1)(C(F)(F)F)P(=O)(OCC(C)C)OCC(C)C (stereo unspecified),"inconclusive [inhibitor, single point]"
10,O=c1c2ccccc2nc(-c2cccs2)n1-c1ccccc1,active: 2 µM
11,N#Cc1ccc(Cn2cc(C=O)c3ccccc32)cc1,active: 7.08 µM [setting not given]
12,C[C@H]1C=CC(=O)O[C@H]1c1ccccc1,"inconclusive [inhibitor, single point]"
13,CCN(CC)c1ccc2c(cc1=O)[C@@H](NC)CCc1cc(OC)c(OC)c(OC)c1-2,"inconclusive [inhibitor, full curve, poor fit]"
14,CC(=O)c1cn(Cc2ccccc2F)c2ccccc12,"inconclusive [inhibitor, partial curve, poor fit]"
15,COC(=O)c1ccc(NC(=O)CSc2nc3ccc(N4C(=O)C5C6C=CC(C6)C5C4=O)cc3s2)cc1 (stereo unspecified),"inconclusive [inhibitor, partial curve, poor fit]"
16,CN(Cc1cccc(-c2cccnc2)c1)C(=O)Oc1ccc([N+](=O)[O-])cc1,"inconclusive [inhibitor, partial curve, poor fit]"
17,CCN(CC)C(=O)c1ccc(NC(=O)Nc2ccccc2F)cc1,"inconclusive [inhibitor, full curve, poor fit]"
18,CC(C)OP(=O)(OC(C)C)C(Nc1ccccc1)c1ccccc1C(F)(F)F (stereo unspecified),"inconclusive [inhibitor, single point]"
19,CCC(C#N)(CC)P(=S)(c1ccccc1)c1ccccc1,"inconclusive [inhibitor, partial curve, poor fit]"
20,CC(C)(C)P(=O)(NCc1ccccc1)c1ccccc1 (stereo unspecified),inactive
21,CC(NCc1ccccc1C(F)(F)F)C(O)c1ccccc1 (stereo unspecified),"inconclusive [inhibitor, partial curve, poor fit]"

row,Compound,Potency
1,COc1ccccc1CCNCc1ccc(OC)c(OC)c1OC,inactive
2,Cc1ccc([C@H]2N[C@]3(CCCN(Cc4ccc(C(F)(F)F)cc4)C3=O)[C@H]3C(=O)N(Cc4ccccc4)C(=O)[C@@H]23)cc1,"inconclusive [inhibitor, single point]"
3,CC(C)(C)c1cc(OC(=O)Cc2ccccc2)ccc1O,inactive
4,Cc1ccc(CC(=O)N2CCN(Cc3ccccc3)CC2)cc1,inactive
5,COc1cccc(C(c2nnnn2Cc2ccccc2)N2CCC(n3c(=O)[nH]c4ccccc43)CC2)c1OC (stereo unspecified),"inconclusive [inhibitor, full curve]"
6,COc1ccccc1N1CCN(Cc2c[nH]c3ccccc23)CC1,"inconclusive [inhibitor, partial curve, poor fit]"
7,CCOC(=O)c1c(C)n(Cc2ccccc2)c2ccc(OCC(O)CNC(C)(C)C)cc12 (stereo unspecified),"inconclusive [inhibitor, partial curve, poor fit]"
8,O=C1c2cccc3cc([N+](=O)[O-])cc(c23)C(=O)N1c1ccccc1O,inactive
9,Cc1ccccc1Cc1c(C)nc2nc(SCC(=O)N3CCC4(CC3)OCCO4)nn2c1C,"inconclusive [inhibitor, partial curve, poor fit]"
10,Clc1ccc(COC(Cn2ccnc2)c2ccc(Cl)cc2Cl)cc1 (stereo unspecified),"inconclusive [inhibitor, partial curve, poor fit]"
11,O=C(NCC1=C(c2cccc3ccccc23)C[C@@H]2CC[C@H]1N2Cc1ccco1)c1ccc([N+](=O)[O-])cc1,active: 3.55 µM [setting not given]
12,CN(C)C=C1C(=O)N(C2CCCCC2)C(=O)N(C2CCCCC2)C1=O,"inconclusive [inhibitor, single point]"
13,COc1ccc(C(=O)N/N=C/C23CC[C@@H](O)CC2(O)CC[C@@H]2[C@@H]3CCC3(C)C(C4=CC(=O)OC4)CCC23O)cc1 (stereo partly specified),"inconclusive [inhibitor, single point]"
14,CCC(c1nnnn1-c1ccc2c(c1)OCCO2)N1CCC(n2c(=O)[nH]c3ccccc32)CC1 (stereo unspecified),"inconclusive [inhibitor, partial curve]"
15,FC(F)(F)c1ccc2c(c1)nnn2C1CCN(Cc2nnnn2Cc2ccccc2)CC1,"inconclusive [inhibitor, partial curve, poor fit]"
16,C[C@]12CC[C@H](O)C[C@H]1CC[C@@H]1[C@@H]2CC[C@]2(C)[C@@H](C3=CC(=O)OC3)CC[C@]12O,active: 0.501 µM [setting not given]
17,CCCc1cc(N2CCN(c3ccc(OC)cc3)CC2)n2cnnc2n1,"inconclusive [inhibitor, partial curve, poor fit]"
18,CN(C)CC1CCCCC1OC(=O)c1ccc(Cl)c(Cl)c1 (stereo unspecified),"inconclusive [inhibitor, single point]"
19,Cc1cccc(CCNCc2cc3cc(C)cc(C)c3[nH]c2=O)c1,inactive
20,O=C(/C=C/C=C/c1ccccc1)CC1(O)C(=O)Nc2ccccc21 (stereo unspecified),"inconclusive [inhibitor, single point]"
21,O=P(OC1CCCCC1)(OC1CCCCC1)C(O)c1c(Cl)cccc1Cl (stereo unspecified),"inconclusive [inhibitor, single point]"

row,Compound,Potency
1,Cc1ccc(-c2cc(C(F)F)n3ncc(C(=O)N4CCc5ccccc5C4)c3n2)cc1,"inconclusive [inhibitor, full curve, poor fit]"
2,Cc1ccc(C)c(N)c1,"inconclusive [inhibitor, single point]"
3,CCOC(=O)C1CCN(C(C)C(=O)c2c(C)[nH]c3cc(C)ccc23)CC1 (stereo unspecified),"inconclusive [inhibitor, partial curve, poor fit]"
4,Cc1ccc(C)c(NP(=O)(Oc2ccccc2)Oc2ccccc2)c1,"inconclusive [inhibitor, partial curve, poor fit]"
5,COc1cccc(CCNCc2cccc(C(F)(F)F)c2)c1,"inconclusive [inhibitor, single point]"
6,CCOc1ccc(C(NC(=O)c2cc(OC)c(OC)c(OC)c2)c2cc(Cl)c3cccnc3c2O)cc1 (stereo unspecified),"inconclusive [inhibitor, full curve, poor fit]"
7,O=C(c1cc(C(=O)NCc2ccc(Cl)cc2)c(=O)n(Cc2ccc(Cl)cc2)c1)c1cc(F)ccc1O,"inconclusive [inhibitor, full curve, poor fit]"
8,c1ccc2[nH]c(CCNC3CCCCC3)nc2c1,inactive
9,NC1(C(=O)O)CCCc2ccc(N(CCCl)CCCl)cc21 (stereo unspecified),inactive
10,COc1c(C)cc(C(=O)C2CCCN(Cc3cccc(O)c3)C2)cc1C (stereo unspecified),"inconclusive [inhibitor, single point]"
11,C=C(C)C1(CCCC)C(=O)NC(=S)NC1=O,inactive
12,CN1CCc2nc(SCc3ccccc3Br)c(C#N)cc2C1,"inconclusive [inhibitor, single point]"
13,Cc1nc2ccccc2c(=O)n1-c1ccc(Cl)cc1Cl,"inconclusive [inhibitor, single point]"
14,CCOC(=O)N1CCN(C(=O)Cn2ncc3c4ccccc4n(Cc4ccc(F)cc4)c3c2=O)CC1,"inconclusive [inhibitor, partial curve, poor fit]"
15,CCCCn1nnnc1C(c1ccccc1)N1CCC2(CC1)C(=O)NCN2c1ccccc1 (stereo unspecified),"inconclusive [inhibitor, single point]"
16,C[C@]12CCC3C(CCC4=CC(O)CC[C@@]43/C=N/O)C1(O)CCC2C1=CC(=O)OC1 (stereo partly specified),"inconclusive [inhibitor, full curve, poor fit]"
17,Cc1ccc(N2C(=O)NC(=O)/C(=C\c3cn(CC(=O)O)c4ccccc34)C2=O)cc1,inactive
18,CCN1CCN(C(=O)Cc2c(C)n(C(=O)c3ccc(Cl)cc3)c3ccc(OC)cc23)CC1,"inconclusive [inhibitor, single point]"
19,Cc1[nH]c2ccc(OC(F)(F)F)cc2c1CCNCc1cccc([N+](=O)[O-])c1,"inconclusive [inhibitor, partial curve, poor fit]"
